Hit rate of the full screen: of about 48,000 compounds, about 120 (0.25%) were called active. About 4% were inconclusive and are not listed. Calls come from the whole dose curve; as a rule, active = well fitted activation curve with a large enough effect; inconclusive = small, poorly fitted or top-dose-only effect, or another doubt; inactive = no such curve, though single readings can be large or run the other way. The list shows a part of the results.

A short description of the assay: Primary qHTS for Identification of Small Molecule Activators of Huntingtin-Antisense Promoter Activity. Note: nearly all actives have a fitted effect of over 55% in size. Particulars: HEK293 HTT-AS promoter firefly luciferase reporter, 24 h; series mostly up to 57.5 µM; activity change, positive = activation: at the top concentration. The source says:
Assay Provider: Russell L. Margolis M.D.
Department Neurology, Johns Hopkins University School of Medicine, Baltimore, MD
Huntington's Disease (HD) is a neurodegenerative disorder caused by a CAG repeat expansion in exon 1 of huntingtin (HTT). While there are currently no disease-modifying treatments for HD, recent efforts have focused on development of nucleotide-based therapeutics to lower HTT expression. As an alternative to siRNA or oligonucleotide methods, we hypothesized that suppression of HTT expression might be accomplished by small molecules that either (1) directly decrease HTT expression by suppressing HTT promoter activity or (2) indirectly decrease HTT expression by increasing the promoter activity of HTT-AS, the gene antisense to HTT that appears to inhibit expression of HTT.
We developed and employed a high throughput screen for modifiers of HTT and HTT-AS promoter activity using luminescent reporter HEK293 cells; of the 52,041 compounds tested, we identified 898 replicable hits. We used a rigorous stepwise approach to assess compound toxicity and the capacity of the compounds to specifically lower huntingtin protein in 5 different cell lines, including HEK293 cells, HD lymphoblastoid cells, mouse primary neurons, HD iPSCs differentiated into cortical-like neurons, and HD hESCs. We found no compounds which were able to lower huntingtin without lowering cell viability in all assays, though the potential efficacy of a few compounds at non-toxic doses could not be excluded.
SEQUENCE No. (1, 2, 3, etc.); […] (e.g., Cells, Incubation, Reagent, etc.); VALUE and DESCRIPTION.
1; Reagent; 4 uL; 2,500 Hek293 luciferase reporter cells per wells
3; Compound; 23 nL; Control inhibitor / compound library
5; Reagent; 2.5 uL; Firefly Luc reagent; Dual-Glo Luciferase Reporter Assay System (Promega)
6; Time; 10 min; room temperature incubation
7; Detection; Luminescence; FLuc
NOTES (numbers refer to sequence above)
1; High-throughput screening, measuring luminescence from a Hek293 luciferase reporter, was performed in 1,536 well white-walled tissue-culture treated plates. 2,500 cells were plated in 4 µL of Opti-MEM per well using a Multidrop Combi Reagent Dispenser (ThermoFisher).
2; Assay plates were cultured for 24 hours.
3; Control inhibitor (PTC124; final concentration of 50 uM) and compound library (at final concentrations of 460 nM - 57.5 uM) were added to the assay plate using the Kalypsis Pintool Robotic System equipped with 1536 pinheads.
4; Cells were then incubated for 24 hours at 37 degrees C prior to luminescence measurements.
5; In all cases, luminescence was measured using the Dual-Glo Luciferase Reporter Assay System (Promega) following the manufacturer's instructions.
6; Room temperature incubation.
7; Luminescence signal was obtained using the PerkinElmer ViewLux plate reader. Results were normalized to vehicle control (0% activity) and zero RLU (-100% activity).
Regarding `COc1ccc(CNC(=O)CCCN2C(=O)c3cccnc3Oc3ccc(Cl)cc32)cc1`, the “activity change, positive = activation” value was inactive: -12.3%. The value for `CCOC(=O)C1CCN(C(=O)Cn2ncc3c4ccccc4n(C)c3c2=O)CC1` was inactive: -10.6%; that for `Cc1oc(-c2cccc(Cl)c2)nc1CSCC(=O)NCc1ccccc1Cl` was inactive: -22.4%; that for `CCOc1ccccc1NC(=O)CCc1c(C)nc2c3cccnc3nn2c1C` was inactive: -12.3%. For `CCc1cccc(NC(=O)Cn2ncc3c([nH]c4ccc(C)cc43)c2=O)c1` the value was inactive: 0.885%; for `COc1ccc(Cl)cc1C1CC(=O)Nc2cc3c(cc21)OCCO3` (configuration not stated), inactive: -45.7%. Turning to `CCCCNc1sc(S(=O)(=O)CCC)nc1S(=O)(=O)c1ccc(C)cc1`, the “activity change, positive = activation” value is inactive: -21.4%. For `Cc1ccc(CN2C(=O)c3ccccc3Sc3ccc(C(=O)NC4CCCC4)cc32)cc1` the value was inactive: -37.8%. For `CCNC(=O)c1c2c(nc3ccccc13)C(=O)N(C1CCCCC1)C2` the value was inactive: -11.5%. For `O=C(Cn1c(SCc2ccccc2F)nc2cccnc21)Nc1ccc(F)c(Cl)c1` the value was inactive: -0.177%. For `Cc1ccc(C(=O)N2CCc3cc(CNC(=O)CCc4ccccc4)ccc32)cc1`, the “activity change, positive = activation” value is inactive: -45.3%. For the molecule `O=C(NC1CC(=O)N(c2ccccc2)C1)c1ccco1` (configuration not stated), the “activity change, positive = activation” value is inactive: -9.82%. The value for `COc1cccc(C(=O)NCCc2csc(-c3cccc(F)c3)n2)c1OC` was inactive: -11.3%.

Take `CS(=O)(=O)c1ccc(C(=O)Nc2ccc(Cl)c(-c3ccccn3)c2)c(Cl)c1`: the “activity change, positive = activation” value is inactive: -4.17%. Regarding `O=C(Nc1ccc(F)cc1)Nc1ccc2snnc2c1`, the “activity change, positive = activation” value is inactive: -22.7%.

As for `CCc1cccc(NC(=O)CN(c2ccc(C)cc2)S(=O)(=O)c2cccs2)c1`, the “activity change, positive = activation” value is inactive: -19.4%. For `CCc1nc2ccc(C(=O)NCc3cccc(Br)c3)cc2nc1CC` the value was inactive: -0.375%; for `CCc1ccc(S(=O)(=O)Nc2cc3c(cc2N2CCOCC2)n(C)c(=O)c(=O)n3C)cc1`, inactive: -20.5%; for `CCOc1ccc(NC(=O)C(=O)NCCc2ccccc2)cc1`, inactive: 13.7% [at 11.5 µM, percent change from vehicle, -100% = no light].

Regarding `O=C1C(c2c(O)[nH]c3ccccc23)=Nc2ccccc21`, the “activity change, positive = activation” value is inactive: -10.6%. Take `O=C(Cn1c(=O)n(CCCS(=O)(=O)C2CCCCC2)c(=O)c2ccccc21)Nc1ccc(F)c(Cl)c1`: the “activity change, positive = activation” value was inactive: -12.4%. For `COc1ccc(C)cc1NC(=O)N1CCN(c2nnc(C)c3c(C)n(-c4ccccc4)nc23)CC1` the value was inactive: 1.83%; for `COCCCNC(=O)c1nn(-c2ccc(C)cc2)c(=O)n(C)c1=O`, inactive: -3.37%.

Consider `O=C(c1cnc(N2CCCCC2)c2ccccc12)N1CCN(c2cccc(Cl)c2)CC1`, for which the “activity change, positive = activation” value is inactive: -33.6%. The value for `Cc1cc(C)cc(NC(=O)CCCn2c(=O)c3cccn3c3ccccc32)c1` was inactive: 18%. The value for `COc1ccc(-n2ccn(Cc3ccccc3C)c(=O)c2=O)cc1` was inactive: 2.76%; that for `CCc1cc2c(cc3c(=O)n(CC(=O)NC4CCCCC4)ncn32)s1` was inactive: 1.45%; that for `Cc1ccc(OCC(=O)Nc2ccc3[nH]c(=O)sc3c2)cc1` was inactive: 7.1%. For `CCOc1ccc(N(C(C)C(=O)NCCSc2ccc(C)cc2)S(C)(=O)=O)cc1` (configuration not stated) the value was inactive: -25.1%; for `COc1cccc(C(c2sc3nc(-c4ccco4)nn3c2O)N2CCN(c3ccccc3F)CC2)c1` (configuration not stated), inactive: -8%.

In the case of `Cc1cc(C)cc(NC(=O)C(=O)NCC(c2cccnc2)N2CCN(c3ccccc3)CC2)c1` (configuration not stated), the “activity change, positive = activation” value was inactive: -15.5%. For `CCCCn1cc(S(=O)(=O)c2ccc(CC)cc2)c(=O)c2cc(F)c(N3CCOCC3)cc21` the value was inactive: -11%; for `O=C1CN(C(=O)Nc2ccccc2Cl)C(c2ccccc2)c2c(sc3c2CCCC3)N1` (configuration not stated), inactive: -35.1%. In the case of `Cc1nn(-c2ccccc2)c2c1N(CCCC(=O)NCc1ccccc1)C(=O)CS2`, the “activity change, positive = activation” value was inactive: -17.6%.

As for `COc1ccc(-c2cc(C(=O)NCCc3ccc(OC)c(OC)c3)c3ccccc3n2)cc1`, the “activity change, positive = activation” value was inactive: -2.88%. As for `COc1ccc(NC(=O)C(C)Sc2cc(-c3ccccc3)nc(C)n2)cc1Cl` (configuration not stated), the “activity change, positive = activation” value was inactive: -34.9%. The value for `COc1ccccc1NC(=O)CCn1cnc2onc(-c3ccc(F)cc3)c2c1=O` was inactive: -10.3%; that for `CCCNC(=O)C1CCN(Cc2cc3ccccc3n2Cc2ccccc2)CC1` was inactive: -24.1%.

Take `CC1(C)CCC(c2ccc(Cl)cc2)=C(CN2CCN(c3ccc(C(=O)NS(=O)(=O)c4ccc(N[C@H](CCN5CCOCC5)CSc5ccccc5)c(S(=O)(=O)C(F)(F)F)c4)cc3)CC2)C1`: the “activity change, positive = activation” value is inactive: -7.36%. The value for `CC1(C)CC(=O)c2cc(-c3nc(-c4ccc(Cl)cc4)cs3)c(=O)n(-c3cccc(F)c3)c2C1` was inactive: -18.3%; that for `COc1cc(C)ccc1OCCSc1nc2ccc(NC(=O)c3ccc(C)cc3)cc2s1` was inactive: -2.59%; that for `COc1ccc(-c2ccc(CCC(=O)O)n2CC(=O)Nc2cccc(Cl)c2C)cc1` was inactive: -29.8%. For `CC(=O)c1cccc(Nc2nn(-c3ccc(OC(F)(F)F)cc3)nc2C(C)=O)c1` the value was inactive: 3.61%; for `COc1ccc(CNC(=O)CCc2c(C)nc3nc(CNC(=O)OC(C)(C)C)nn3c2C)cc1`, inactive: -18%; for `Cc1c(C(=O)N(Cc2ccc(N(C)C)cc2)Cc2ccco2)oc2cc(Br)ccc12`, inactive: -1.53%. On to `Cn1cc(C(=O)NCCc2ccccc2)c(=O)c2cc(S(=O)(=O)N3CCCCCC3)ccc21`, for which the activity change, positive = activation is inactive: -19.4% [at 11.5 µM, percent change from vehicle, -100% = no light].

For the molecule `O=C(CN1C(=O)CC(c2ccco2)Sc2ccccc21)Nc1ccc(Br)cc1` (configuration not stated), the “activity change, positive = activation” value was inactive: -28.5%.

The record behind these values is PubChem BioAssay AID1508624 (National Center for Advancing Translational Sciences (NCATS), 2021).
